# Assay results reported in publication PMC4336329 (PLoS ONE, 2015).
# About 2,200 (0.71%) of roughly 310,000 compounds showed an effect of 50% or more. Effects have a minus sign here. The list shows a part of the results.
# Target: human ether-à-go-go-related gene (hERG) potassium channel (human, UniProt Q12809)
# Experiment: primary screen, population patch clamp on CHO cells stably expressing hERG
# Sequence of human ether-à-go-go-related gene (hERG) potassium channel (Q12809 whole entry, looked up): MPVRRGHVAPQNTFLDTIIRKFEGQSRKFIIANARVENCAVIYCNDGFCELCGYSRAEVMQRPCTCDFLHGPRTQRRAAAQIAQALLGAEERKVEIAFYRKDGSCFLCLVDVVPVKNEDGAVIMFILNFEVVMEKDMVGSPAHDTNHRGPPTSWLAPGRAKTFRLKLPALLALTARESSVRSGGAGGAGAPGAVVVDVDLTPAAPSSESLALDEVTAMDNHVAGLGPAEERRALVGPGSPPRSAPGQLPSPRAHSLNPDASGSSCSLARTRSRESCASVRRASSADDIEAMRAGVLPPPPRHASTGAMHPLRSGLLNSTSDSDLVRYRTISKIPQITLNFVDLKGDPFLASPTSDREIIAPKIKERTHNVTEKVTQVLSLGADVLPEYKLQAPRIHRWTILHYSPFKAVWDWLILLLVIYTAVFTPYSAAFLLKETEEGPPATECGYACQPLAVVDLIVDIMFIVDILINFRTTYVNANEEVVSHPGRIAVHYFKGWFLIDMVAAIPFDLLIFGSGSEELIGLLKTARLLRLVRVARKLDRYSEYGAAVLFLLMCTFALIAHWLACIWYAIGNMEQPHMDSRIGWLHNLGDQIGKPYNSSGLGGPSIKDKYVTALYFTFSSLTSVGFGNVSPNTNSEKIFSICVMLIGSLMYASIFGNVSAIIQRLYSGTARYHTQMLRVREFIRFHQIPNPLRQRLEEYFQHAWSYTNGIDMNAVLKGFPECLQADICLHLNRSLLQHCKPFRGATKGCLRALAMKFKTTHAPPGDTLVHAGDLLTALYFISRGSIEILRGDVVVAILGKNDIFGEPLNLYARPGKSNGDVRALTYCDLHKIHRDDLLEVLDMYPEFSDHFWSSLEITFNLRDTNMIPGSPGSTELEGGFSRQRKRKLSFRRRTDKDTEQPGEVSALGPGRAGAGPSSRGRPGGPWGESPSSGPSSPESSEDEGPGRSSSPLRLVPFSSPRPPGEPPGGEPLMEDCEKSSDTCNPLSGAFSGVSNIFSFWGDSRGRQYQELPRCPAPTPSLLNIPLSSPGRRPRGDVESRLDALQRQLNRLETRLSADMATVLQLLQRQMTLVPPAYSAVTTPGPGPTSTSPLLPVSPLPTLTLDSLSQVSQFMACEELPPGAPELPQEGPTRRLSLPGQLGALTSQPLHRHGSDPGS
row,Structure (SMILES),"hERG current change (%, negative = inhibition) at 1uM [%]"
1,CCOc1ccc(NC(=O)CN(C)CC(=O)Nc2ccccc2SC)cc1OCC,2.8
2,CCc1nnc(NC(=O)Cc2ccc(S(=O)(=O)N3CCCCC3)cc2)s1,6.7
3,Cc1ccccc1N(CC(=O)O)S(C)(=O)=O,9.79
4,COc1ccc(C)cc1NC(=O)C(c1ccccc1)N1CCNC(=O)C1 (stereo not shown),10.4
5,CC(=O)c1ccc(NC2=NCCCS2)cc1,12
6,Cc1ccccc1OCCN=Cc1c(O)n(C)c(=O)n(C)c1=O,10.2
7,Cc1cc(NC(=O)CCCSc2nc(-c3ccco3)cc(C(F)(F)F)n2)n(-c2ccccc2)n1,13
8,CCCCCCCc1n[nH]c(=S)n1Cc1ccccc1,8.24
9,COc1ccc(/C(O)=C2/C(=O)C(=O)N(CCCC(=O)O)C2c2ccc(OC)cc2)cc1 (stereo not shown),11.6
10,CCc1cccc(NS(=O)(=O)c2cccc3cccnc23)c1,9.17
11,CCOC(=O)C1CCCN(S(=O)(=O)c2cc(Br)cc3c2N(C(C)=O)CC3)C1 (stereo not shown),0.423
12,Cc1cc(Cl)ccc1NC(=O)c1ccc2c(c1)OCO2,13.6
13,Cc1ccc(OCC(=O)O/N=C(\N)c2ccncc2)cc1C,10.7
14,Cc1ccc(NP(=O)(Nc2ccc(C)cc2)Nc2ccc(C)cc2)cc1,8.75
15,ONC(=Nc1ccccc1)c1ccc(Cl)cc1,1.54
16,CN(C(=O)CC1C(=O)NCCN1Cc1ccc(F)cc1)C1CCOCC1 (stereo not shown),11
17,C=CCN1C(=O)c2ccc(C(=O)N(C)Cc3ccc(C)o3)cc2C1=O,15.7
18,Cc1cccnc1NC(=O)C(C)Oc1ccccc1 (stereo not shown),6.99
19,CC(C)c1nnc(NC(=O)CSc2nnc(-c3ccco3)o2)s1,5.35
20,COc1ccccc1CCNS(=O)(=O)c1cc2c3c(c1)CCN3C(=O)CC2,11.4
21,CNC(=S)N(CCN(C)C)Cc1cc2cc3c(cc2[nH]c1=O)OCO3,6.86
22,COc1ccc(CCn2c(N)cc(=O)[nH]c2=S)cc1OC,5.71
23,O=C(O)c1ccc(N=NN2CCCCC2)cc1,0.696

row,Structure (SMILES),"hERG current change (%, negative = inhibition) at 1uM [%]"
1,COc1cc(NC(=O)CSc2ccccc2)c(C(=O)O)cc1OC,15.5
2,Cc1nn(C(C)C(=O)N2CCN(c3ccccn3)CC2)c(=O)c2cc3occc3n12 (stereo not shown),6.34
3,CC(C)(CC(=O)O)CC(=O)NCc1c(Cl)cccc1Sc1ccc(Cl)cc1,3.65
4,Cc1cccc(-n2c(O)c(C=Nc3c(C)n(C)n(-c4ccccc4)c3=O)c3ccccc3c2=O)n1,11.3
5,COC(=O)c1ccc(N(CC(=O)NC2CCCC2)C(=O)CNC(=O)c2ccco2)cc1,-6.95
6,CNc1nc(Cl)nc(NC(C)(C)C)n1,11.1
7,CCc1cccc(NC(=O)C2CCN(S(=O)(=O)c3ccc4[nH]c(=O)ccc4c3)CC2)c1,2.78
8,Cc1ccc(-n2c(O)c(C=NC3CCCCC3N)c(=O)[nH]c2=O)cc1C (stereo not shown),9.81
9,CCc1ccc(OCC(=O)N2c3ccccc3CCc3ccccc32)cc1,1
10,COc1cc(NC(=O)CSc2nnc3ccc(-c4ccncc4)nn23)cc(OC)c1,-1.12
11,COc1cc(-c2nc(C)c(C(C)=O)n2O)ccc1OCC(=O)Nc1ccc(F)cc1,-1.77
12,O=C(c1cc(COc2ccc3ncccc3c2)on1)N1CCC(O)CC1,15.9
13,COc1ccc(S(=O)(=O)NCc2cc(=O)n(C)c(=O)n2C)cc1F,6.86
14,CCC(C)N(C(=O)COC(=O)c1nc2nc(C)cc(C)n2n1)C1CCS(=O)(=O)C1 (stereo not shown),21.2
15,O=C(NCc1ccccc1)c1cnsn1,7.4
16,O=[N+]([O-])c1c(Nc2ccc(Br)cc2)ccc2nonc12,9.31
17,O=c1oc2ccccc2c2c1SC(C(F)(F)F)C2 (stereo not shown),1.61
18,Cc1ccc(S(=O)(=O)NCCNC(=O)CN2CCOCC2)cc1,11.1
19,O=C1c2ccccc2-c2onc3ccc(NCc4ccco4)c1c23,15.3
20,COc1ccc([N+](=O)[O-])cc1NC1C2CC3CC(C2)CC1C3 (stereo not shown),17.1
21,Cc1cc(Cl)ccc1NC(=O)CN1CCC(C(O)(c2ccccc2)c2ccccc2)CC1,10.3
22,Cc1cccc2sc(N(CCCN(C)C)C(=O)c3ccc4ncsc4c3)nc12,2.31
23,CC(=O)Nc1cccc(/C(C)=N/NC(=O)c2ccc(O)cc2)c1,6.84
